Laboratory results published in PubChem BioAssay AID504845 (National Center for Advancing Translational Sciences (NCATS), 2011).
Screen size: about 390,000 compounds; about 150 (0.038%) were called active. Inconclusive means that the source gave no clear call. Such entries were picked first, then a sample of the others. The call rests on the fitted dose curve; in most records, active means well fitted inhibition curve with a large enough effect; inconclusive means small, poorly fitted or top-dose-only effect; inactive means no such curve, though single readings can be large or run the other way. Where the call is inconclusive, the potency comes from a doubtful curve fit.

These compounds were tested against Regulator of G-protein signaling 4 (Homo sapiens) (UniProt P49798) (assay: Inhibitors of Regulator of G Protein Signaling (RGS) 4: qHTS). Settings: Transcreener GDP fluorescence polarization, RGS4-accelerated GTP hydrolysis; series mostly up to 114 µM; activity change, negative = inhibition: at the top concentration.
Method in brief: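 MLSMR compounds (23 nl, pin-transferred) preincubated 10 min at room temperature with a 500nM (2x) first reagent, then RGS4 at 900nM (2x) plus Transcreener GDP mix added; fluorescence polarization (620/688 nm) read before and after 90 min at 30 °C.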
Further: nearly all actives have a fitted effect of over 75% in size.
On the % scale 0 is the no-effect control and ±100 the full control effect; potency means the concentration at half of the fitted maximal effect; tags describe the fitted curve by direction and shape.

Sequence of UniProt P49798 (P49798 whole entry, looked up): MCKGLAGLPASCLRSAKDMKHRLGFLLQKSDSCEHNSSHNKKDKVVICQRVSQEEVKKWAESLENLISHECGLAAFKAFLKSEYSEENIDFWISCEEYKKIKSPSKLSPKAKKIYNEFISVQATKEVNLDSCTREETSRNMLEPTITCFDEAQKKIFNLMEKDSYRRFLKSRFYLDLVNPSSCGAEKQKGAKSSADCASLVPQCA

Row | Structure (SMILES) | activity change, negative = inhibition | Potency
1 | O=C(O)COc1ccc2nsnc2c1Cl | inactive: 13.8% | –
2 | O=C(NCc1ccco1)c1ccc(N2CCCC2=O)cc1 | inactive: -3.48% | –
3 | Cc1c(C(=O)OC(C)C)sc2nc[nH]c(=O)c12 | inactive: -4.67% | –
4 | Cc1ccc(C(C[N+](=O)[O-])c2c(-c3ccccc3O)[nH][nH]c2=O)cc1 (stereo not given) | – | inconclusive: 35.5 µM [inhibitor, partial curve, poor fit]
5 | C1=C(N2CCOCC2)/C(=C/c2nc3ccccc3[nH]2)CC1 | – | inconclusive: 56.2 µM [inhibitor, partial curve, poor fit]
6 | COCCCN1C(=O)c2[nH]nc(-c3ccccc3O)c2C1c1ccc(OCc2ccccc2)cc1 (stereo not given) | inactive: -12.6% | –
7 | COc1ccc(OC)c(C2C3CN(C(C)C)CC=C3C(C#N)=C(N)C2(C#N)C#N)c1 (stereo not given) | – | inconclusive: 89.1 µM [inhibitor, single point]
8 | Cc1ccccc1N(C(=O)c1snc(C(N)=O)c1N)C(C(=O)NCC1CCCO1)c1ccc(F)cc1 (stereo not given) | – | inconclusive: 89.1 µM [inhibitor, partial curve, poor fit]
9 | CC(=O)NC(NC(C)=O)c1cccc(OCc2ccccc2)c1 | – | inconclusive: 70.8 µM [inhibitor, partial curve, poor fit]
10 | CCOc1cc(CNc2ccc(N3CCCC3)cc2)cc(Cl)c1OC | – | inconclusive: 44.7 µM [inhibitor, partial curve, poor fit]
11 | CCc1cc(=S)n2c([nH]c3ccccc32)c1C#N | – | inconclusive: 39.8 µM [inhibitor, partial curve, poor fit]
12 | CCOc1cc(/C=C2/C(=O)NN(c3cccc(Cl)c3)C2=O)ccc1O | – | inconclusive: 79.4 µM [inhibitor, partial curve, poor fit]
13 | CCC(C)N(C(=O)CSc1nc(C)c(C)c(C)c1C#N)C1CCS(=O)(=O)C1 (stereo not given) | – | inconclusive: 89.1 µM [inhibitor, single point]
14 | CCCCN(C)C(=O)c1nc2ccccn2c1CN1CCC[C@H]1C(=O)OC | – | inconclusive: 17.8 µM [inhibitor, full curve, poor fit]
15 | Cc1ccc(Cl)cc1NC(=O)NCc1cccn1Cc1ccc(F)cc1 | inactive: 19.3% | –
16 | O=C(Nc1ccc(F)cc1)Nc1ccc([N+](=O)[O-])cn1 | inactive: 13.9% | –
17 | Cc1ccc(OCCC(=O)OCC(=O)NCCc2ccc(Cl)cc2)cc1 | – | inconclusive: 70.8 µM [inhibitor, partial curve, poor fit]
18 | C=CCN1C(=O)C(=O)N(Cc2nc3ccccc3s2)C1=O | inactive: 26.4% | –
19 | CCCCc1cn([C@@H](CCCCN)C(=O)N2CCNCC2)nn1 | – | inconclusive: 50.1 µM [inhibitor, partial curve, poor fit]
20 | COc1ccc(/C(N)=N/OC(=O)CN(C)S(=O)(=O)c2ccccc2)cc1 | – | inconclusive: 79.4 µM [inhibitor, single point]

Row | Structure (SMILES) | activity change, negative = inhibition | Potency
21 | CCOc1cc(NC(=O)c2ccco2)c(OCC)cc1NC(=O)c1ccco1 | inactive: -7.15% | –
22 | Nc1nc(SCC(=O)c2ccc(F)cc2)n[nH]1 | – | inconclusive: 79.4 µM [inhibitor, partial curve, poor fit]
23 | O=C(N/N=C/c1ccc(OCc2ccccc2)cc1)c1cc[n+](Cc2ccccc2)cc1 | inactive: -20% | –
24 | O=S(=O)(Nc1cc(Sc2ncn[nH]2)c(O)c2ccccc12)c1ccccc1 | – | inconclusive: 17.8 µM [inhibitor, full curve, poor fit]
25 | Cc1cc(Br)ccc1OCCCCNC(C)(C)C | – | inconclusive: 79.4 µM [inhibitor, single point]
26 | Cc1ccc(-c2nc3ncccn3c2NC2CCCC2)o1 | – | inconclusive: 89.1 µM [inhibitor, single point]
27 | Cc1ccc(C)c(N2CCN(C(=O)c3ccc4nc(-c5ccco5)c(-c5ccco5)nc4c3)CC2)c1 | – | inconclusive: 100 µM [inhibitor, single point]
28 | CCCCC[C@H](O)/C=C/C=C\CCCCCCCC(=O)O | – | inconclusive: 6.7 µM [inhibitor, full curve, poor fit]
29 | Cc1ccc(-c2nn(CCC(=O)O)cc2/C=C\C(=O)c2ccc(Br)cc2)cc1 | – | inconclusive: 22.4 µM [inhibitor, full curve, poor fit]
30 | Cc1cc(C)n2c(Nc3ccc4c(c3)OCCO4)c(-c3ccc(C)o3)nc2n1 | – | inconclusive: 56.2 µM [inhibitor, partial curve, poor fit]
31 | CCc1nnc(NC(=O)c2ccc(Cl)c(S(=O)(=O)N3CCc4ccccc43)c2)s1 | inactive: 11.8% | –
32 | Cc1cc(C)c(C)c(S(=O)(=O)ON2C(=O)c3ccccc3C2=O)c1C | – | inconclusive: 31.6 µM [inhibitor, full curve, poor fit]
33 | Cc1ccccc1C(=O)NNc1ccc(-c2csnn2)cc1 | – | inconclusive: 79.4 µM [inhibitor, single point]
34 | CCOc1ccc(NC(=O)c2ccc(NC(=O)COC(=O)c3ccc(NC(=O)CC#N)cc3)cc2)cc1 | – | inconclusive: 35.5 µM [inhibitor, partial curve, poor fit]
35 | CCOC(=O)c1ccc(NC(=O)CSc2nccn2-c2cc(C)cc(C)c2)cc1 | – | inconclusive: 79.4 µM [inhibitor, partial curve, poor fit]
36 | O=C(COC(=O)c1c2c(nc3ccccc13)/C(=C/c1ccco1)CC2)NC1CCCC1 | – | inconclusive: 79.4 µM [inhibitor, partial curve, poor fit]
37 | CC(NC(=O)Cc1ccccc1F)c1ccc(F)cc1 (stereo not given) | – | inconclusive: 28.2 µM [inhibitor, full curve, poor fit]
38 | Cn1nccc1C(=O)NC1CC(C)(C)Cc2c1cnn2-c1ccc(F)cc1 (stereo not given) | – | inconclusive: 70.8 µM [inhibitor, single point]
39 | COC(=O)c1ccc2c(c1)C(C)(C)C(/C=C/c1ccc(O)cc1)=[N+]2C | – | inconclusive: 44.7 µM [inhibitor, partial curve, poor fit]
40 | CCOC(=O)c1c(-c2ccccc2)csc1NC(=O)c1cc(-c2ccccc2OC)on1 | – | inconclusive: 50.1 µM [inhibitor, partial curve, poor fit]
